One assay addresses GLP-1R (UniProt P43220). In words: cell-based or functional assay.
A further assay deals with T1, GIPR (UniProt P48546 22-466, limits assumed).
T1 sequence (looked up): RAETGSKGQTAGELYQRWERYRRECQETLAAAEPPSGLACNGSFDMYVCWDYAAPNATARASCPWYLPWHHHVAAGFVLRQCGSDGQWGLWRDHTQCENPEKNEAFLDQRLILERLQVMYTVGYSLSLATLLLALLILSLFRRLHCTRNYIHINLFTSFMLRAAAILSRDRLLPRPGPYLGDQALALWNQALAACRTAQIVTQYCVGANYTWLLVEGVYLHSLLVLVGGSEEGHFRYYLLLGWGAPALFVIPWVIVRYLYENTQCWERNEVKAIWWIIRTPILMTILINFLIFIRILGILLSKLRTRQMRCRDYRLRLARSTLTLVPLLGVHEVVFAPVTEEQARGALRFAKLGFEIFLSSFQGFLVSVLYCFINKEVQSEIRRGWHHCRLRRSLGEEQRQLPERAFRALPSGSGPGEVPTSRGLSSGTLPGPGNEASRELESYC
The assay is described as follows: cell-based or functional assay.

The text below walks through data of patent publication US20250223331A1, “GLP-1/GIP DUAL-TARGETED POLYPEPTIDE AND FUSION PROTEIN AND APPLICATIONS THEREOF” (SUNSHINE LAKE PHARMA CO., LTD., priority 2021, published 2025).

Numbering of substitutions follows the chain as printed.

B1: HEC-G31 (Fc fusion)
chain: YGEGTFTSDYSIYLDKKAQRLFIEWLLAQGPSSGAPPPSGGGGSGGGGSGGGGSA[here human IgG4 Fc with S228P F234A L235A (EU numbers) without letters]
For the molecule B1, the “EC50, cAMP” value with GLP-1R was determined as 2.56 nM; with GIPR, 2.85 nM.

B2: HEC-G40 (Fc fusion)
chain: B1 chain with Y1H, K17I, R20Q, L21A, Q29G
For the molecule B2, the “EC50, cAMP” value with GLP-1R amounted to 0.061 nM; in the assay with GIPR, 10.9 nM.

B3: HEC-G60 (Fc fusion)
chain: B1 chain with K17L, R20Q, L21E, E24D, L27K, Q29G
B3: the entries for the “EC50, cAMP” value with GLP-1R and in the assay with GIPR were 8.75 nM and 3.05 nM, respectively.

B4: HEC-G39 (Fc fusion)
chain: B1 chain with G2A, K17I, R20Q, L21A, L27K, Q29G
As for B4, the “EC50, cAMP” value with GLP-1R was 0.675 nM; with GIPR, 1.34 nM.

B5: HEC-G47 (Fc fusion)
chain: B1 chain with K17Q, L21D, I23V, Q29G
Take B5: the entries for the “EC50, cAMP” value in the assay with GLP-1R and with GIPR were 0.995 nM and 0.651 nM, respectively.

B6: HEC-G85 (Fc fusion)
chain: B1 chain with L21D, E24N, L27I, Q29G
Consider B6, for which the “EC50, cAMP” value in the assay with GLP-1R came out at 0.045 nM; with GIPR, 0.326 nM.

B7: HEC-G38 (Fc fusion)
chain: B1 chain with G2A, K17L, R20Q, L21A, Q29G
As for B7, the “EC50, cAMP” value was determined as 12.5 nM with GLP-1R and 0.589 nM with GIPR.

B8: HEC-G41 (Fc fusion)
chain: B1 chain with Y1H, E3Q, K17I, R20Q, L21A, Q29G
As for B8, the “EC50, cAMP” value in the assay with GLP-1R was determined as 1.57 nM; with GIPR, 6.02 nM.

B9: HEC-G48 (Fc fusion)
chain: B1 chain with G2A, K17I, R20Q, L21A, Q29G
With B9, the “EC50, cAMP” value was found to be 1.16 nM in the assay with GLP-1R and 0.091 nM with GIPR.

B10: HEC-G55 (Fc fusion)
chain: B1 chain with K17L, R20Q, L21D, I23V, L27I, Q29G
In the case of B10, the “EC50, cAMP” value with GLP-1R came out at 3.98 nM; with GIPR, 0.278 nM.

B11: HEC-G72 (Fc fusion)
chain: B1 chain with L21D, E24D, Q29G
On to B11, for which the “EC50, cAMP” value with GLP-1R worked out at 0.281 nM; with GIPR it was 0.372 nM.

B12: HEC-G63 (Fc fusion)
chain: B1 chain with K17L, L21D, I23V, Q29G
For the molecule B12, the “EC50, cAMP” value in the assay with GLP-1R is 39.1 nM; in the assay with GIPR it was 17.7 nM.

B13: HEC-G78 (Fc fusion)
chain: B1 chain with Y13A, L21D, L27I, Q29G
Take B13: the results for the “EC50, cAMP” value with GLP-1R and in the assay with GIPR were 0.226 nM and 1.08 nM, respectively.

B14: HEC-G56 (Fc fusion)
chain: B1 chain with Y13A, K17L, R20Q, L21D, Q29G
As for B14, in the assay with GIPR, the “EC50, cAMP” value is 0.154 nM.

B15: HEC-G53 (Fc fusion)
chain: B1 chain with R20Q, L21D, I23V, L27I, Q29G
With B15, the “EC50, cAMP” value amounted to 0.772 nM with GLP-1R and 0.518 nM with GIPR.

B16: HEC-G64 (Fc fusion)
chain: B1 chain with R20Q, L21D, I23V, Q29G
In the case of B16, the “EC50, cAMP” value with GLP-1R was 6.32 nM; in the assay with GIPR, 0.875 nM.

B17: HEC-G82 (Fc fusion)
chain: B1 chain with K17Q, L21D, I23V
As for B17, the “EC50, cAMP” value is 6.53 nM with GLP-1R and 0.172 nM with GIPR.

B18: HEC-G44 (Fc fusion)
chain: B1 chain with Y13A, L21D, Q29G
As for B18, the “EC50, cAMP” value with GLP-1R was 2.55 nM; with GIPR it was 0.171 nM.

B19: HEC-G35 (Fc fusion)
chain: B1 chain with G2A, K17L, R20Q, L21E, E24D, L27K, Q29G
As to B19, the “EC50, cAMP” value in the assay with GLP-1R came out at 2.86 nM; in the assay with GIPR it was 1.24 nM.

B20: HEC-G54 (Fc fusion)
chain: B1 chain with K17Q, L21A, L27I, Q29G
Take B20: the “EC50, cAMP” value with GLP-1R is 0.121 nM; with GIPR, 1.04 nM.

B21: HEC-G75 (Fc fusion)
chain: B1 chain with L21D, I23V, L27I
For the molecule B21, the “EC50, cAMP” value was found to be 0.876 nM with GLP-1R and 1.82 nM with GIPR.

B22: HEC-G26 (Fc fusion)
chain: B1 chain with T7I, L21D, I23V
B22: the “EC50, cAMP” value with GIPR is 0.064 nM.

B23: HEC-G65 (Fc fusion)
chain: B1 chain with R20Q, L21A, I23V, Q29G
Take B23: the “EC50, cAMP” value with GLP-1R worked out at 1.58 nM; with GIPR, 3.78 nM.

B24: HEC-G32 (Fc fusion)
chain: B1 chain with E3Q, L21D, I23V
Consider B24, for which the “EC50, cAMP” value with GLP-1R worked out at 1.86 nM; with GIPR, 0.321 nM.

B25: HEC-G59 (Fc fusion)
chain: B1 chain with K17L, R20Q, L21A, L27K, Q29G
B25: the “EC50, cAMP” value in the assay with GLP-1R worked out at 0.844 nM; in the assay with GIPR, 6.09 nM.

B26: HEC-G66 (Fc fusion)
chain: B1 chain with K17L, R20Q, L21A, I23V, Q29G
For B26, the “EC50, cAMP” value with GLP-1R amounted to 7.03 nM; in the assay with GIPR it was 0.324 nM.

B27: HEC-G76 (Fc fusion)
chain: B1 chain with L21D, I23V, E24Q, Q29G
On to B27, for which the figures for the “EC50, cAMP” value with GLP-1R and with GIPR were 0.714 nM and 5.01 nM, respectively.

B28: HEC-G77 (Fc fusion)
chain: B1 chain with Y13I, L21D, I23V, Q29G
As to B28, the “EC50, cAMP” value with GLP-1R is 3.88 nM; with GIPR, 4.84 nM.

B29: HEC-G68 (Fc fusion)
chain: B1 chain with L21D, I23V, L27V, Q29G
Regarding B29, the “EC50, cAMP” value with GLP-1R was determined as 0.272 nM; with GIPR, 10.2 nM.

B30: HEC-G67 (Fc fusion)
chain: B1 chain with G2S, L21D, I23V, Q29G
Turning to B30, the “EC50, cAMP” value with GLP-1R is 1.14 nM; with GIPR it was 0.485 nM.

B31: HEC-G81 (Fc fusion)
chain: B1 chain with Y13A, K17Q, L21D, I23V, L27I, Q29G
For B31, the “EC50, cAMP” value with GLP-1R came to 0.427 nM; with GIPR it was 0.922 nM.

B32: HEC-G46 (Fc fusion)
chain: B1 chain with L21D, L27I, Q29G
On to B32, for which the entries for the “EC50, cAMP” value with GLP-1R and with GIPR were 0.285 nM and 0.297 nM, respectively.

B33: HEC-G70 (Fc fusion)
chain: B1 chain with L21E, I23V, Q29G
As to B33, the “EC50, cAMP” value was determined as 0.684 nM with GLP-1R and 3.88 nM with GIPR.

B34: HEC-G34 (Fc fusion)
chain: B1 chain with K17Q, L21D, I23V, L27I, Q29G
As to B34, the “EC50, cAMP” value with GLP-1R is 0.354 nM; with GIPR it was 0.275 nM.

B35: HEC-G86 (Fc fusion)
chain: B1 chain with A18H, L21D, L27I, Q29G
B35: the “EC50, cAMP” value with GLP-1R was found to be 0.651 nM; with GIPR, 5.5 nM.

B36: HEC-G84 (Fc fusion)
chain: B1 chain with K17Q, A18H, L21D, I23V, L27I, Q29G
Turning to B36, the results for the “EC50, cAMP” value with GLP-1R and with GIPR were 6.03 nM and 8.97 nM, respectively.

B37: HEC-G37 (Fc fusion)
chain: B1 chain with G2A, K17L, R20Q, L21A, L27K, Q29G
For B37, the figures for the “EC50, cAMP” value with GLP-1R and in the assay with GIPR were 0.745 nM and 0.563 nM, respectively.

B38: HEC-G57 (Fc fusion)
chain: B1 chain with Y13A, R20Q, L21A, Q29G
In the case of B38, the “EC50, cAMP” value worked out at 17.5 nM with GLP-1R and 9.43 nM with GIPR.

B39: HEC-G71 (Fc fusion)
chain: B1 chain with L21E, E24D, Q29G
Regarding B39, the “EC50, cAMP” value in the assay with GLP-1R came out at 0.252 nM; with GIPR, 1.04 nM.

B40: HEC-G83 (Fc fusion)
chain: B1 chain with K17I, L21D, I23V, L27I, Q29G
Take B40: the results for the “EC50, cAMP” value in the assay with GLP-1R and with GIPR were 0.125 nM and 0.732 nM, respectively.

B41: HEC-G69 (Fc fusion)
chain: B1 chain with K17L, R20Q, L21D, I23V, Q29G
For B41, the “EC50, cAMP” value was 38.9 nM with GLP-1R and 0.332 nM in the assay with GIPR.

B42: HEC-G73 (Fc fusion)
chain: B1 chain with L21A, E24D, Q29G
B42: the “EC50, cAMP” value with GLP-1R is 0.155 nM; with GIPR, 5.93 nM.

B43: HEC-G61 (Fc fusion)
chain: B1 chain with K17I, R20Q, L21A, Q29G
Regarding B43, the “EC50, cAMP” value in the assay with GLP-1R is 7.58 nM; in the assay with GIPR, 1.15 nM.

B44: HEC-G74 (Fc fusion)
chain: B1 chain with L21D, L27I
For the molecule B44, the “EC50, cAMP” value with GLP-1R came out at 2 nM; in the assay with GIPR, 0.552 nM.
